Assay results: the supplement of paper PMC11417369
Some of the results follow.

system: PfSIP2 AP2 domain 1 (GST-tagged); assay: gcPBM binding intensity (ln(normalized median fluorescence intensity)); higher = stronger DNA binding
How it was run: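 After 1 h on an Agilent 4 × 180k array of primer-extended double-stranded 36-bp intergenic genomic probes and negative controls, bound GST-tagged P. falciparum DNA-binding domains were detected with Alexa488 anti-GST antibody and scanned at 488 nm. The domains had been expressed in E. coli, and binding took place in 1× PBS with 1% milk, 0.2 mg/ml BSA, 0.5% salmon testes DNA and 0.03% Triton X-100. Binding intensity is the highest Masliner-normalised natural-log median intensity across replicate spots of either probe orientation.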

In order of falling “gcPBM binding intensity (ln)” value:
1. AATTAAAAAATTATCACACATATATATATATATATA [CACACA_site5789]  9.53
2. GTGTAATTTATTGTGTTGCACTTTTTTTTTTTTTTT [GTGCAC_site9644]  9.35
3. TCAAAGCACAGATACACACACATATATATATATATA [CACACA_site287]  9.16
4. ATGTTGTTATAAAGAGTGCAACGTATATGTATCCTT [GTGCAC_site9935]  9.15
5. GCTAAAAGTATATGCACACACATATAGATGCACATA [CACACA_site6868]  9.07
6. TGTAATAATTATTGCACGCACACAAAAACCTATAGA [CACACA_site2932]  7.61
7. TACCTATACCTATACACACACACACGGAAATAAATA [CACACA_site6750]  7.56
8. ATAAAATAATTAATGGGTACATAATTAAATAAAGAG [XGTACX_site3309]  7.51
9. AAAAAAAAAAAAAGTACACACTTTTGCGTACAAGTA [CACACA_site5672]  7.5
10. AAAGATAATATATGCACACATATAAATATATAAATA [CACACA_site3477]  7.33
11. TAAGGTTCATTAAAGTGTACACATAAATACCGTAAC [XGTACX_site8212]  7.3
12. TATATACCACATTGTTGTACGACACATTTACATTTT [XGTACX_site8370]  7.26
13. TTAATATAGGAATATGCACACATATATACATACATA [CACACA_site8432]  7.25
14. ACTGTCGTTTTAAAGAGTACATAAAATATTAAATTA [XGTACX_site3589]  7.25
15. TATATCATAAAAAATTGTACATATATATATTATATA [XGTACX_site6726]  7.2
16. TTATGATTATAACGTTTTGACATTAGGCATATATAT [CACACA_negctrl_site1396]  7.2
17. ATGTCTTTGAAAAAAAGTACTTAAAATTATAAAAAT [XGTACX_site147]  7.2
18. AAGATAGACTCATATGCATGCATTCACATACCAACA [TGCATGCA_site179]  7.19
19. GACACTTTGAAGGGTACATGCAGAAAAAAAAAAAAA [TGCATGCA_site89]  7.18
20. AATACAATTTTTAACACACACACAATAATACAGATA [CACACA_site4823]  7.17
21. CAGTTATTTTAATGTGGTACACAATTTTAAAATTAT [XGTACX_site8571]  7.17
22. AATTTTATAAAAAGTAGTACATATCAAACACCTTGA [XGTACX_site2297]  7.13
23. AATGTGCCCACGCGTACACACAAAAAAAGAAAAAAA [CACACA_site2003]  7.12
24. AATAATAAAAAATACACACACATATATATATATTAC [CACACA_site3464]  7.12
25. CATACATAGAAACACACACACACACCCACCCACAAA [CACACA_site494]  7.11
26. TATTTATTATATAAATGTACATAATATATGTATGTC [XGTACX_site2815]  7.1
27. GGATAAGATGTATATACACACAATTTAAAAAAATAA [CACACA_site910]  7.08
28. GGAAACACGATATATACACACATATTTATATTTATA [CACACA_site6250]  7.07
29. AAGTAAATATAATAAGGTACACATAAATAAATAAAT [XGTACX_site1740]  7.06
30. TTCTTTTAAAGGTATACATGCGCATGGATTTTTCAT [TGCATGCA_site223]  7.02
31. ATTCTGAATGTTATGCGTACATATTAATCCTATTTA [XGTACX_site1216]  6.97
32. TTTTATTTATCTAATTGTACTCATTCTTTTTTGATG [XGTACX_site2876]  6.88
33. TGATGGGACATAAATATTGAGATGATCATAAGATAA [TGCATGCA_negctrl_site276]  6.88
34. TCTTACAAAAAACAAACAGAGAAAAATATAAGGAAA [XGTACX_negctrl_site520]  6.88
35. AGAAAAGGAAAATAAACATGCAAAAATAATATTAAA [TGCATGCA_site337]  6.87
36. TGACTTTTTTTTTTTTTTTTTTTTTTTTATCTTTTT [CACACA_negctrl_site481]  6.81
37. TAAACATTGTAAAGGAGTACAAAATTTTTTTTATGA [XGTACX_site7757]  6.78
38. AAGAAAAAAAAAAAAAAAAAAAAAAAAAATTTATGA [TGCATGCA_negctrl_site294]  6.77
39. ATATAAAATGAACATAGTACTTTTTATATATTTTAA [XGTACX_site7461]  6.77
40. AAAACTATTAATGCAAAAAATAAAATATAATAATAA [XGTACX_negctrl_site524]  6.77
41. TGAAATGATATATAAACACACATATATAAATATGTA [CACACA_site7616]  6.76
42. AAATATAATTTGCGATGTACACATATATATTTATTT [XGTACX_site1568]  6.76
43. TCCAAATAAATATATTGTACAGAATTATTGATACCT [XGTACX_site327]  6.7
44. TTTTAAAAAAAAAAAAAAAAAATTAAAATAATTCAA [TGCATGCA_negctrl_site69]  6.33
